Measured values: patent US12583836B2 (Anaxis Pharma Pty Ltd, priority 2020, dated 2026)

What was measured:
RIP1 = molecular target: T1, RIP1 (Homo sapiens, UniProt Q13546); experiment: KINOMEscan binding assay, RIP1; details: equilibrium dissociation constant, class symbols
T1 construct: purchased DiscoverX (KINOMEscan service); host or cells: E. coli BL21-derived (T7 phage) or HEK293
T1 sequence (Q13546 1-671): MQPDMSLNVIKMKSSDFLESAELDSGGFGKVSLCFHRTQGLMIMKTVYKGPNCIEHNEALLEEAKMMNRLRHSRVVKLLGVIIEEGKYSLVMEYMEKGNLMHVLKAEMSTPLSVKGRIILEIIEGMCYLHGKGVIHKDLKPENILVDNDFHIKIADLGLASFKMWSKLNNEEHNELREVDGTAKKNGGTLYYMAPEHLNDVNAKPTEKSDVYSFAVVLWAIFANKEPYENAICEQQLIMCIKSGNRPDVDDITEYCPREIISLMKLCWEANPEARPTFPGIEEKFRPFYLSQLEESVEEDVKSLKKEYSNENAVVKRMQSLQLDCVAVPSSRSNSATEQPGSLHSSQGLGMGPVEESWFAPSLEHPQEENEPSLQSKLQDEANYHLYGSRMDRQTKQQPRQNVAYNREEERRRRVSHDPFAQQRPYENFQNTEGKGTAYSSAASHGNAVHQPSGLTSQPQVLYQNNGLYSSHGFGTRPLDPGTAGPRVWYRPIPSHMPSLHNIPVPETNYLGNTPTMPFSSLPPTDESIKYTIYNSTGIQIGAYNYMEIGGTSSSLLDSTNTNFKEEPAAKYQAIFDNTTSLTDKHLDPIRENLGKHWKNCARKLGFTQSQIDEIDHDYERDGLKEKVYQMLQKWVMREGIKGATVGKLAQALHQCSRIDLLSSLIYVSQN

RIP3 = molecular target: T2, RIP3 (Homo sapiens, UniProt Q9Y572); experiment: KINOMEscan binding assay, RIP3; details: equilibrium dissociation constant, class symbols
T2 construct: purchased DiscoverX (KINOMEscan service); host or cells: E. coli BL21-derived (T7 phage) or HEK293
T2 sequence (Q9Y572 whole entry): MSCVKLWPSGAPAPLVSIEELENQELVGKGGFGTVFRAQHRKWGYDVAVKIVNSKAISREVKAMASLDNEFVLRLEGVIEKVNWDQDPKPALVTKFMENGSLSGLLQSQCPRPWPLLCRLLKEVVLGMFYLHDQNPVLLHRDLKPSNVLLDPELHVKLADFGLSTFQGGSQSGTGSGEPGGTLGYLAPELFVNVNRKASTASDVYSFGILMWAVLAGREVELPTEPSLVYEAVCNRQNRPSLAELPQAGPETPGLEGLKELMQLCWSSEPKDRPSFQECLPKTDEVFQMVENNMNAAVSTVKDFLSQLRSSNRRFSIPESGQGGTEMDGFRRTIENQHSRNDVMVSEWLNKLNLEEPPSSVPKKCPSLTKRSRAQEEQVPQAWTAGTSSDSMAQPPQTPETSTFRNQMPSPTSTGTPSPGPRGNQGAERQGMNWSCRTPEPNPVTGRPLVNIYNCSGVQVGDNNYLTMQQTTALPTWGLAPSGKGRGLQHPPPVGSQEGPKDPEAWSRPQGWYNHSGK
Excerpt: The Hill Slope was set to −1.

SMILES | Kd (RIP1) [µM] | Kd (RIP3) [µM]
CCS(=O)(=O)Nc1ccc(-c2n[nH]c(Nc3cnccn3)c2C(N)=O)cc1OCC(C)C [Compound 45, 3-(4-(ethylsulfonamido)-3-isobutoxyphenyl)-5-(pyrazin-2-ylamino)-1H-pyrazole-4-carboxamide] | 1 to 30 | > 30
C[C@H](Oc1cc(NS(=O)(=O)CC(F)(F)F)ccc1-c1n[nH]c(Nc2cnccn2)c1C(N)=O)c1ccc(F)cc1 [Compound 244, 3-{2-[(1S)-1-(4-fluorophenyl)ethoxy]-4-(2,2,2-trifluoroethanesulfonamido)phenyl}-5-[(pyrazin-2-yl)amino]-1H-pyrazole-4-carboxamide] | > 30 | > 30
CCS(=O)(=O)Nc1ccc(-c2n[nH]c(Nc3ccccn3)c2C(N)=O)cc1OCC(C)C [Compound 37, 3-(4-(ethylsulfonamido)-3-isobutoxyphenyl)-5-(pyridin-2-ylamino)-1H-pyrazole-4-carboxamide] | > 30 | > 30
CCS(=O)(=O)Nc1ccc(-c2n[nH]c(Nc3ccc4ccccc4n3)c2C(N)=O)cc1 [Compound 89, 3-(4-(ethylsulfonamido)phenyl)-5-(quinolin-2-ylamino)-1H-pyrazole-4-carboxamide] | 1 to 30 | 1 to 30
NC(=O)c1c(-c2ccc(NS(=O)(=O)Cc3ccc(Cl)cc3)cc2)n[nH]c1Nc1cnccn1 [Compound 70, 3-(4-(((4-chlorophenyl)methyl)sulfonamido)phenyl)-5-(pyrazin-2-ylamino)-1H-pyrazole-4-carboxamide] | > 30 | > 30
NC(=O)c1cccc(Nc2[nH]nc(-c3ccc(NS(=O)(=O)C(F)F)cc3)c2C(N)=O)n1 [Compound 257, 6-({4-carbamoyl-3-[4-(difluoromethanesulfonamido)phenyl]-1H-pyrazol-5-yl}amino)pyridine-2-carboxamide] | > 30 | > 30
CCS(=O)(=O)Nc1ccc(-c2n[nH]c(Nc3ccc(C(F)(F)F)cn3)c2C(N)=O)cc1OCc1ccc(F)cc1 [Compound 207] | > 30 | > 30
CCS(=O)(=O)Nc1ccc(-c2n[nH]c(Nc3cnccn3)c2C(N)=O)cc1OC1CCCc2ccccc21 (centres unmarked) [Compound 232, 3-[4-ethanesulfonamido-3-(1,2,3,4-tetrahydronaphthalen-1-yloxy)phenyl]-5-[(pyrazin-2-yl)amino]-1H-pyrazole-4-carboxamide] | > 30 | > 30
CCS(=O)(=O)Nc1ccc(-c2n[nH]c(Nc3cnccn3)c2C(N)=O)cc1OCC1CCCC1 [Compound 40, 3-(3-(cyclopentylmethoxy)-4-(ethylsulfonamido)phenyl)-5-(pyrazin-2-ylamino)-1H-pyrazole-4-carboxamide] | > 30 | > 30
NC(=O)c1c(-c2ccc(NS(=O)(=O)CC(F)(F)F)c(OCc3ccc(F)cn3)c2)n[nH]c1Nc1ccccn1 [Compound 240, 3-{3-[(5-fluoropyridin-2-yl)methoxy]-4-(2,2,2-trifluoroethanesulfonamido)phenyl}-5-[(pyridin-2-yl)amino]-1H-pyrazole-4-carboxamide] | > 30 | > 30
CCOc1cccc(Nc2[nH]nc(-c3ccc(NS(=O)(=O)CC)cc3)c2C(N)=O)n1 [Compound 96, 5-((6-ethoxypyridin-2yl)amino)-3-(4-(ethylsulfonamido)phenyl)-1H-pyrazole-4-carboxamide] | > 30 | 1 to 30
CCS(=O)(=O)Nc1ccc(-c2n[nH]c(Nc3cnc4cc(Cl)ccc4n3)c2C(N)=O)cc1 [Compound 65, 5-((6-chloroquinoxalin-2-yl)amino)-3-(4-(ethylsulfonamido)phenyl)-1H-pyrazole-4-carboxamide] | > 30 | > 30
NC(=O)c1c(-c2ccc(NS(=O)(=O)Cc3ccc(OC(F)(F)F)cc3)cc2)n[nH]c1Nc1cnccn1 [Compound 80, 5-(pyrazin-2-ylamino)-3-(4-(((4-(trifluoromethoxy)phenyl)methyl)sulfonamido)phenyl)-1H-pyrazole-4-carboxamide] | > 30 | > 30

Now from value to molecule:

Kd (RIP1) [µM] | Kd (RIP3) [µM] | SMILES
> 30 | 1 to 30 | NC(=O)c1c(-c2ccc(NS(=O)(=O)Cc3cccc(Cl)c3)cc2)n[nH]c1Nc1cccc(C(F)(F)F)n1 [Compound 59, 3-(4-(((3-chlorophenyl)methyl)sulfonamido)phenyl)-5-((6-(trifluoromethyl)pyridin-2-yl)amino)-1H-pyrazole-4-carboxamide]
> 30 | > 30 | CCS(=O)(=O)Nc1ccc(-c2n[nH]c(Nc3ccccn3)c2C(N)=O)cc1OCC1CCCCC1 [Compound 35, 3-(3-(cyclohexylmethoxy)-4-(ethylsulfonamido)phenyl)-5-(pyridin-2-ylamino)-1H-pyrazole-4-carboxamide]
> 30 | > 30 | COCCOc1cc(Nc2[nH]nc(-c3ccc(NS(=O)(=O)CCOC)cc3)c2C(N)=O)ccn1 [Compound 120, 5-((2-(2-methoxyethoxy)pyridin-4-yl)amino)-3-(4-((2-methoxyethyl)sulfonamido)phenyl)-1H-pyrazole-4-carboxamide]
> 30 | > 30 | NC(=O)c1c(-c2ccc(NS(=O)(=O)CC(F)(F)F)c(Oc3ccc(Cl)cc3)c2)n[nH]c1Nc1cnccn1 [Compound 168, 3-(3-(4-chlorophenoxy)-4-((2,2,2-trifluoroethyl)sulfonamido)phenyl)-5-(pyrazin-2-ylamino)-1H-pyrazole-4-carboxamide]
> 30 | > 30 | NC(=O)c1c(-c2ccc(NS(=O)(=O)CC(F)(F)F)c(OCc3ccc(F)cc3)c2)n[nH]c1Nc1cccc(C(F)F)n1 [Compound 173, 5-((6-(difluoromethyl)pyridine-2-yl)amino)-3-(3-((4-fluorobenzyl)oxy)-4-((2,2,2-trifluoroethyl)sulfonamido)phenyl)-1H-pyrazole-4-carboxamide]
> 30 | 1 to 30 | NC(=O)c1c(-c2ccc(NS(=O)(=O)C3CCCCC3)cc2)n[nH]c1Nc1cnccn1 [Compound 74, 3-(4-(cyclohexanesulfonamido)phenyl)-5-(pyrazin-2-ylamino)-1H-pyrazole-4-carboxamide]
> 30 | > 30 | CCS(=O)(=O)Nc1ccc(-c2n[nH]c(Nc3cnccn3)c2C(N)=O)cc1OCc1cccc(F)c1 [Compound 26, 3-(4-(ethylsulfonamido)-3-((3-fluorobenzyl)oxy)phenyl)-5-(pyrazin-2-ylamino)-1H-pyrazole-4-carboxamide]
> 30 | > 30 | N#Cc1cccc(Nc2[nH]nc(-c3ccc(NS(=O)(=O)CC(F)(F)F)cc3)c2C(N)=O)n1 [Compound 237, 5-[(6-cyanopyridin-2-yl)amino]-3-[4-(2,2,2-trifluoroethanesulfonamido)phenyl]-1H-pyrazole-4-carboxamide]
> 30 | > 30 | CCOc1cc(Nc2[nH]nc(-c3ccc(NS(=O)(=O)CC)cc3)c2C(N)=O)ccn1 [Compound 105, 5-((2-ethoxypyridin-4-yl)amino)-3-(4-(ethylsulfonamido)phenyl)-1H-pyrazole-4-carboxamide]
> 30 | 1 to 30 | NC(=O)c1c(-c2ccc(NS(=O)(=O)CC(F)F)cc2)n[nH]c1Nc1cccc(C(F)(F)F)n1 [Compound 49, 3-(4-((2,2-difluoroethyl)sulfonamido)phenyl)-5-((6-(trifluoromethyl)pyridin-2-yl)amino)-1H-pyrazole-4-carboxamide]
> 30 | 1 to 30 | NC(=O)c1c(-c2ccc(NS(=O)(=O)c3ccccc3)cc2)n[nH]c1Nc1ccccn1 [Compound 133, 3-(4-(phenylsulfonamido)phenyl)-5-(pyridin-2-ylamino)-1H-pyrazole-4-carboxamide]
> 30 | > 30 | CCS(=O)(=O)Nc1ccc(-c2n[nH]c(Nc3cccc(C(F)(F)F)n3)c2C(N)=O)cc1OCC1CCCC1 [Compound 10, 3-(3-(cyclopentylmethoxy)-4-(ethylsulfonamido)phenyl)-5-((6-(trifluoromethyl)pyridin-2-yl)amino)-1H-pyrazole-4-carboxamide]
> 30 | 1 to 30 | CCS(=O)(=O)Nc1ccc(-c2n[nH]c(Nc3ccc(OC)nc3)c2C(N)=O)cc1OCc1ccc(F)cc1 [Compound 197, 3-(4-(ethylsulfonamido)-3-((4-fluorobenzyl)oxy)phenyl)-5-((6-methoxypyridin-3-yl)amino)-1H-pyrazole-4-carboxamide]
> 30 | 1 to 30 | C#CCS(=O)(=O)Nc1ccc(-c2n[nH]c(Nc3ccnc(OCCOC)c3)c2C(N)=O)cc1 [Compound 109, 5-((2-(2-methoxyethoxy)pyridin-4-yl)amino)-3-(4-(prop-2-yn-1-ylsulfonamido)phenyl)-1H-pyrazole-4-carboxamide]
> 30 | > 30 | NC(=O)c1c(-c2ccc(NS(=O)(=O)C(F)F)cc2)n[nH]c1Nc1ccc(C(F)(F)F)cn1 [Compound 145, 3-(4-((difluoromethyl)sulfonamido)phenyl)-5-((5-(trifluoromethyl)pyridine-2-yl)amino)-1H-pyrazole-4-carboxamide]
